Results on 63 compounds are retold here after the supplement of paper PMC9446081.

Out of some 39,000 compounds screened, about 220 (0.56%) showed activity. Some of the results follow.
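Also: static incubation at 37 °C against the wild-type strain, values averaged over two biological replicates.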

The test relates to Escherichia coli K-12 BW25113. As to the kind of experiment: relative growth (OD600 normalised to plate interquartile mean) (fraction); higher = less growth inhibition, active = 0.2 or less. To be noted: 50 µM; LB; incubation time: overnight (16-24 h).
For the compound `C[C@H](CO)N1C[C@H](C)[C@@H](CN(C)Cc2ccccc2)Oc2ccc(NC(=O)CCCN(C)C)cc2CC1=O`, the relative growth is inactive: 0.981.

For `C[C@H]1CN([C@@H](C)CO)C(=O)Cc2cc(NC(=O)Nc3ccccc3)ccc2O[C@@H]1CN(C)Cc1ccc(C(F)(F)F)cc1`, the relative growth is inactive: 1.01. As for `C[C@@H]1CN([C@@H](C)CO)C(=O)Cc2cc(NS(C)(=O)=O)ccc2O[C@@H]1CN(C)C(=O)Nc1ccc2c(c1)OCO2`, the relative growth was inactive: 0.975. In the case of `COc1ccc(NC(=O)Nc2ccc3c(c2)C(=O)N([C@H](C)CO)C[C@H](C)[C@H](CN(C)S(=O)(=O)c2c(C)noc2C)OCCCC[C@H](C)O3)cc1`, the relative growth was inactive: 1.05. Consider `C[C@H](CO)N1C[C@H](C)[C@@H](CN(C)S(=O)(=O)c2ccc(Cl)cc2)OCCCC[C@H](C)Oc2ccc(NS(=O)(=O)c3cccs3)cc2C1=O`, for which the relative growth was inactive: 1.04. Then `CC(C)CC#Cc1cnc2c(c1)C(=O)N([C@@H](C)CO)C[C@H](C)[C@@H](CN(C)S(=O)(=O)c1cn(C)cn1)O2`, with inactive: 1; and `C[C@@H]1CN([C@@H](C)CO)C(=O)c2cc(C#C[C@@H](C)O)cnc2O[C@@H]1CN(C)C(=O)CN1CCOCC1`, with inactive: 0.994.

On to `C[C@@H]1CCCCO[C@@H](CN(C)C(=O)C2CCCCC2)[C@H](C)CN([C@H](C)CO)C(=O)c2cc(NC(=O)c3ccccc3)ccc2O1`, for which the relative growth was inactive: 1. As for `CC[C@@H](C)c1ccc(NC(=O)c2ccc(N(CC)CC)cc2)cc1`, the relative growth was inactive: 0.85.

As to `Cc1ccc(S(=O)(=O)N(C)C[C@H]2OCCCC[C@H](C)Oc3ccc(NC(=O)Nc4ccc(F)cc4)cc3C(=O)N([C@@H](C)CO)C[C@H]2C)cc1`, the relative growth is inactive: 1.01. Take `C[C@@H]1CN([C@H](C)CO)C(=O)Cc2cc(NC(=O)Nc3ccc(C(F)(F)F)cc3)ccc2O[C@H]1CN(C)Cc1ccc(Cl)c(Cl)c1`: the relative growth was inactive: 0.977. For `CN1CCN(C(=O)C[C@@H]2CC[C@H]3[C@@H](COC[C@@H](O)CN3S(=O)(=O)c3cccc(F)c3)O2)CC1`, the relative growth is inactive: 0.972. With `CN(C)CCCNC(=O)C[C@H]1CC[C@H]2[C@@H](COC[C@@H](O)CN2S(=O)(=O)c2ccc(Cl)cc2)O1` the figure was inactive: 0.983; with `C[C@@H]1CN([C@@H](C)CO)C(=O)c2cc(NC(=O)Cc3ccccc3)ccc2O[C@@H](C)CCCCO[C@@H]1CN(C)CC1CCCCC1`, inactive: 0.992; with `CCS(=O)(=O)N1C[C@]2(C1)CN([C@H](CO)c1c2c2ccc(cc2n1C)OC)S(=O)(=O)c1ccccc1`, inactive: 0.99. With `C[C@H]1CN([C@@H](C)CO)C(=O)c2cccc(NS(=O)(=O)c3ccc(F)cc3)c2O[C@H]1CN(C)S(=O)(=O)c1ccc(F)cc1` the figure was inactive: 0.999; with `C[C@@H]1CN([C@@H](C)CO)C(=O)c2cc(-c3ccc(C(=O)N(C)C)cc3)cnc2O[C@H]1CN(C)C(=O)c1cccnc1`, inactive: 1.03; with `C[C@@H]1CCCCO[C@@H](CN(C)CC2CC2)[C@@H](C)CN([C@H](C)CO)C(=O)c2cc(NC(=O)Nc3ccc4c(c3)OCO4)ccc2O1`, inactive: 0.991. For the compound `COCC(=O)N1C[C@@H](C)[C@@H](OC)CN(C)C(=O)c2ccc(NC(=O)Nc3cccc(F)c3)cc2OC[C@H]1C`, the relative growth is inactive: 1.02.

As for `C[C@@H]1CN([C@@H](C)CO)C(=O)c2cc(NC(=O)Cc3ccccc3)ccc2O[C@@H]1CN(C)S(=O)(=O)c1cn(C)cn1`, the relative growth was inactive: 1.01. For `C[C@@H]1CN([C@@H](C)CO)C(=O)Cc2cc(NC(=O)Cc3ccccc3)ccc2O[C@@H]1CN(C)Cc1ccc(C(F)(F)F)cc1`, the relative growth is inactive: 0.987.

For `COC1C=CC23c4cc5c(cc4CN(CC2O)C3C1)OCO5` (stereo not drawn), the relative growth is inactive: 1.1. For the compound `C[C@@H]1CCCCO[C@H](CN(C)CC2CCCCC2)[C@H](C)CN([C@H](C)CO)C(=O)c2cc(NC(=O)CCC(F)(F)F)ccc2O1`, the relative growth was inactive: 1. With `C(=N\c1ccccc1)/c1ccc(Oc2ccccc2)cc1` the figure was inactive: 1.05; with `Cc1cnc(C(=O)Nc2nn[nH]n2)cn1`, inactive: 1.04; with `C[C@H]1CCCCO[C@H](CN(C)CC2CC2)[C@@H](C)CN([C@@H](C)CO)C(=O)c2cc(NC(=O)CCC(F)(F)F)ccc2O1`, inactive: 0.99. Take `Cc1ccc(-c2cc(C(F)(F)F)nn2-c2ccc(S(N)(=O)=O)cc2)cc1`: the relative growth is inactive: 0.811. As for `O=C1c2ccccc2C(=O)c2c(O)c(O)cc(O)c21`, the relative growth was inactive: 1.05. With `C#CC1(O)CCC2C3CCC4=CC(=O)CCC4C3CCC21CC` (stereo not drawn), the relative growth was inactive: 1.15. In the case of `CCOC(=O)C1=C(N)C(=O)N(CCCN2CCOCC2)C1`, the relative growth is inactive: 1.02. For `CN(C)c1nc(N)nc(CSc2nnnn2C)n1`, the relative growth is inactive: 0.999.

For `COc1ccc(NC(=O)N(C)C[C@@H]2OCc3ccccc3-c3c(n(C)c4ccccc34)C(=O)N([C@H](C)CO)C[C@@H]2C)cc1`, the relative growth is inactive: 0.981. With `O=C(C[C@@H]1CC[C@H]2[C@@H](COC[C@@H](O)CN2Cc2cc(F)ccc2F)O1)N[C@@H]1CCN(Cc2ccccc2)C1` the figure was inactive: 0.985; with `COc1ccc(NC(=O)Nc2ccc3c(c2)C(=O)N([C@@H](C)CO)C[C@@H](C)[C@H](CN(C)Cc2ccncc2)OCCCC[C@H](C)O3)cc1`, inactive: 1.02; with `C[C@H](CO)N1C[C@H](C)[C@@H](CN(C)Cc2ccc3c(c2)OCO3)Oc2ccc(NC(=O)C3CC3)cc2C1=O`, inactive: 1.01. With `COCC(=O)N1C[C@H](C)[C@H](OC)CN(C)C(=O)c2ccc(NC(=O)Nc3cccc(F)c3)cc2OC[C@H]1C`, the relative growth was inactive: 1.01. Then `O=C(CCCCCNC(=O)OCCCOc1ccc(C2=N[C@@]3(Cc4ccccc4N(CCS(=O)(=O)c4ccccc4)C3=O)[C@H](c3ccccc3)O2)cc1)NO`, with inactive: 1.02. Regarding `COc1ccc(S(=O)(=O)N(C)C[C@H]2Oc3ccc(NS(=O)(=O)c4ccccc4)cc3C(=O)N([C@H](C)CO)C[C@@H]2C)cc1`, the relative growth is inactive: 0.997.

With `O=C(C[C@@H]1C[C@@H]2c3cc(NC(=O)Nc4ccc(C(F)(F)F)cc4)ccc3O[C@@H]2[C@H](CO)O1)NCCc1ccccc1`, the relative growth is inactive: 0.947. On to `Cc1cc(N)n2ncnc2n1`, for which the relative growth was inactive: 1.01. With `C[C@@H]1CCCCO[C@@H](CN(C)C(=O)Nc2ccccc2)[C@H](C)CN([C@H](C)CO)C(=O)c2cc(NS(=O)(=O)c3ccc(F)cc3)ccc2O1` the figure was inactive: 1.04; with `CNC(=N)NCCC[C@@H](N)C(=O)O`, inactive: 1; with `O=C(NCc1ccccc1)C1=C[C@H](c2ccc(Br)cc2)C[C@H](OCc2ccc(CO)cc2)O1`, inactive: 0.893.

For `CCS(=O)(=O)N1C[C@]2(CN(C2)C(=O)Nc2ccc(cc2)F)c2c(n(c3cc(ccc23)OC)C)[C@H]1CO`, the relative growth was inactive: 1. As for `CCCCCCc1nc(-c2ccc(-c3ccc(Cl)c(Cl)c3)o2)cc2c1[Si](C(C)C)(C(C)C)O[C@H]2c1ccccc1`, the relative growth is inactive: 0.983.

As for `Cc1ccc(S(=O)(=O)Nc2ccc3c(c2)C(=O)N([C@H](C)CO)C[C@@H](C)[C@H](CN(C)C(=O)Nc2ccc(C(F)(F)F)cc2)O3)cc1`, the relative growth was inactive: 1.04. `C[C@@H]1CN([C@H](C)CO)C(=O)c2cc(NC(=O)Cc3ccccc3)ccc2O[C@@H](C)CCCCO[C@@H]1CN(C)CC1CCCCC1`: the relative growth is inactive: 1.01. With `C[C@@H]1CCCCO[C@@H](CN(C)Cc2ccc(Cl)c(Cl)c2)[C@@H](C)CN([C@H](C)CO)C(=O)c2cc(NC(=O)Nc3ccc(F)cc3)ccc2O1` the figure was inactive: 1.01; with `Nc1ccc(S(=O)(=O)Nc2nccs2)cc1`, inactive: 1.05; with `COc1ccc(S(=O)(=O)Nc2ccc3c(c2)CC(=O)N([C@H](C)CO)C[C@H](C)[C@@H](CN(C)S(=O)(=O)c2ccccc2)O3)cc1`, inactive: 0.988. Consider `O=C(NCc1ccc(Oc2ccccc2)cc1)c1nc(-c2cc(Br)c(O)c(Br)c2)no1`, for which the relative growth is inactive: 0.967. Regarding `C[C@H]1CN([C@@H](C)CO)S(=O)(=O)c2ccc(C#Cc3ccncc3)cc2O[C@H]1CN(C)C(=O)C1CCCCC1`, the relative growth was inactive: 1.05. As to `CC(C)CNC(=O)C[C@H]1NCCNC1=O`, the relative growth was inactive: 0.923. For `C[C@H](CO)N1C[C@H](C)[C@H](CN(C)Cc2ccc(C(=O)Nc3ccccc3N)cc2)Oc2c(NS(C)(=O)=O)cccc2C1=O`, the relative growth is inactive: 0.99.

On to `C[C@@H]1CCCCO[C@@H](CN(C)S(=O)(=O)c2ccccc2)[C@@H](C)CN([C@@H](C)CO)C(=O)c2cc(NC(=O)Nc3ccc4c(c3)OCO4)ccc2O1`, for which the relative growth is inactive: 1. As for `Cn1c(=O)c(=O)n(C)c2cc(S(=O)(=O)CCC(=O)NCc3ccccc3)ccc21`, the relative growth is inactive: 0.958. Turning to `CCC(=O)N(C)C[C@H]1Oc2ncc(C#C[C@@H](C)O)cc2C(=O)N([C@H](C)CO)C[C@H]1C`, the relative growth is inactive: 1.01.

For `COc1ccc(S(=O)(=O)N(C)C[C@H]2OCCCC[C@H](C)Oc3ccc(NC(=O)NC4CCCCC4)cc3C(=O)N([C@@H](C)CO)C[C@@H]2C)cc1`, the relative growth was inactive: 1.04. In the case of `C[C@@H]1CN([C@@H](C)CO)C(=O)Cc2cc(NS(C)(=O)=O)ccc2O[C@@H]1CN(C)C(=O)Nc1ccc(F)cc1`, the relative growth is inactive: 0.993. Regarding `CC[C@@H](C)SSc1ncc[nH]1`, the relative growth is inactive: 0.906. Then `COc1ccc(NC(=O)N(C)C[C@H]2OCCCC[C@@H](C)Oc3ccc(NS(=O)(=O)c4ccc(OC)cc4)cc3C(=O)N([C@@H](C)CO)C[C@H]2C)cc1`, with inactive: 1.04; and `Cn1cnc(S(=O)(=O)N[C@@H]2C=C[C@@H](CC(=O)NCC3CC3)O[C@@H]2CO)c1`, with inactive: 1.01. With `COCC#Cc1ccc2c(c1)O[C@@H](CN(C)Cc1ccc(F)cc1)[C@@H](C)CN([C@H](C)CO)S2(=O)=O` the figure was inactive: 1.03.
